# Test results as given in publication PMC4336329 (PLoS ONE, 2015).
# About 2,200 (0.71%) of roughly 310,000 compounds showed an effect of 50% or more. The effect is printed as a negative number. This is one part of the list.
# Biological target: human ether-à-go-go-related gene (hERG) potassium channel (human, UniProt Q12809)
# Assay: primary screen, population patch clamp on CHO cells stably expressing hERG
# human ether-à-go-go-related gene (hERG) potassium channel, sequence (Q12809 whole entry, looked up): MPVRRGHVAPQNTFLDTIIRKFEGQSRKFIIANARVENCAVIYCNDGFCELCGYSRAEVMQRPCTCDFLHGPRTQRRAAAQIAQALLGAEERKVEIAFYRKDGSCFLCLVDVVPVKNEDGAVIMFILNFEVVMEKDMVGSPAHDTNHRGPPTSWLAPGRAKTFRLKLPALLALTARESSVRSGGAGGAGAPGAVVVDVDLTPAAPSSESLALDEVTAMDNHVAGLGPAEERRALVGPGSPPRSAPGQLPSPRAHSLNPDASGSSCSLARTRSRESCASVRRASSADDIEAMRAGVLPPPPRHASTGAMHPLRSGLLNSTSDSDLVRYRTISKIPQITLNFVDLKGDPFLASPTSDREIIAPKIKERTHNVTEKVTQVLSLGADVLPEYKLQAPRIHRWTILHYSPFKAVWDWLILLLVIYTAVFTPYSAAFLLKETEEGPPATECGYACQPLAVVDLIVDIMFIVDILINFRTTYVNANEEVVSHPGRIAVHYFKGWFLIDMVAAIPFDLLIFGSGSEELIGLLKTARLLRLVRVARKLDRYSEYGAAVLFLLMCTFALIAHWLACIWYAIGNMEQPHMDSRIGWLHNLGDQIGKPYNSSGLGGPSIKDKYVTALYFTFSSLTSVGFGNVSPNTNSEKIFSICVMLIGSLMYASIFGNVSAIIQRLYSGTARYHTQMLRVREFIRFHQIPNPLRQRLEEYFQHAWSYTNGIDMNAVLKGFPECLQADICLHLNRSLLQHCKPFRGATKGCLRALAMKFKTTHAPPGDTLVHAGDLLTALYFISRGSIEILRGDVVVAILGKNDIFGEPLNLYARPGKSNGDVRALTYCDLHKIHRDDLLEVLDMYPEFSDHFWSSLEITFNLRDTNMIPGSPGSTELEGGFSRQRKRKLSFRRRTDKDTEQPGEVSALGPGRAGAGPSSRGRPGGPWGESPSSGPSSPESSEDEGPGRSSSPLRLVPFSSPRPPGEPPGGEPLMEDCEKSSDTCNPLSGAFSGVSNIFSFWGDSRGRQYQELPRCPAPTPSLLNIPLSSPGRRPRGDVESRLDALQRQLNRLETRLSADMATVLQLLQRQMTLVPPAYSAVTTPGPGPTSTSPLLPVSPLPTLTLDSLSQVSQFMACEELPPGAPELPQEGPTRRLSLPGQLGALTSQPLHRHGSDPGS
row,SMILES,"hERG current change (%, negative = inhibition) at 1uM"
1,Cc1cc(C)cc(NC(=O)COC(=O)Cc2ccccc2F)c1,9.13%
2,C=CCN(c1ccc(C(=O)Nc2ccc(NC(C)=O)cc2)cc1)S(C)(=O)=O,17.3%
3,CN1CCN(C(=O)CNC(=O)Cc2ccc(Cl)cc2)CC1,9.18%
4,Cc1cc2ccccn2c1C(=O)c1ccc([N+](=O)[O-])cc1[N+](=O)[O-],14.6%
5,CCOC(=O)c1c(C)[nH]c(C(=O)C(Cc2ccccc2)N(C)C)c1C.Cl (centres unmarked),-1.7%
6,Cc1cc(C)c2nc(N3C(=O)C(O)=C(C(=O)c4ccco4)C3c3cccc(O)c3)sc2c1 (centres unmarked),11.5%
7,COc1ccc(C(=O)Nc2nnc(Cc3ccccc3)s2)c(OC)c1,6.93%
8,O=C1C=C(c2ccc3ncccc3c2)C[C@@H](c2ccc(F)cc2)C1,4.68%
9,COC(=O)C1=C(c2ccc(OC)c(OC)c2)C[C@@H]2CC[C@H]1N2C(=O)NCc1cc(C)oc1C(F)(F)F,14.6%
10,CCOC(=O)c1cc2cc(CC(=O)c3ccc(OCC)cc3O)ccc2o1,8.63%
11,COc1ccc(NC(=O)/C(=C\c2ccc3c(c2)OCO3)NC(C)=O)cc1,3.52%
12,Cc1ccc(C)c(NS(=O)(=O)c2cc(C(=O)NCCC3=CCCCC3)ccc2C)c1,1.85%
13,COc1ccccc1CNC(=O)C1CC(=O)N(c2ccc(C)c(C)c2)C1 (centres unmarked),8.27%
14,CCOc1ccc(NC(=O)NCCCN2CCCC2)cc1,5.43%
15,COC(=O)C1CCN(c2ccc([N+](=O)[O-])cc2)CC1,4.38%
16,COc1ccc(C(=O)COC(=O)c2ccc(NC(=O)c3ccccc3)cc2)cc1,-2.27%
17,CCOc1ccc(NC(=O)CCC(=O)n2nc(C)cc2C)cc1,8.47%
18,COc1ccc(C(c2nnnn2C(C)(C)C)N2CCN(C(=O)c3ccco3)CC2)cc1 (centres unmarked),-4.01%
19,Cc1ccc(C)c(OCCNc2ncccc2[N+](=O)[O-])c1,13.6%
20,CCOc1ccc(N=C(/C(C(=O)C(=O)N2CCOCC2)=C(/O)c2ccccc2)c2ccccc2)cc1,11.3%
21,COc1ccc(C(=O)NC2CCCc3c2cnn3-c2ccccc2F)o1 (centres unmarked),9.23%
22,Cc1ccc(C(=O)NC2=NCCS2)cc1,4.52%

row,SMILES,"hERG current change (%, negative = inhibition) at 1uM"
1,S=c1[nH]c(-c2ccccc2)cn1/N=C/c1cccc2ccccc12,15.8%
2,Cc1noc(C)c1S(=O)(=O)N(CC(=O)Nc1ccc2c(c1)OCO2)c1ccc(C(C)C)cc1,13.3%
3,Cc1nonc1OCCNCCNc1ccccc1[N+](=O)[O-],-1.22%
4,CN(C(=O)COc1ccccc1)c1nnc(C23CC4CC(CC(C4)C2)C3)s1,5.75%
5,CCOc1ccc(OCC)c(Nc2cc(C)nc3nc(C)nn23)c1,-3.32%
6,NC(=O)CC(NC(=O)Cc1cccc2ccccc12)c1ccc(NCCN2CCCCC2)c([N+](=O)[O-])c1 (centres unmarked),8.77%
7,COc1cc2c(cc1NC(=S)Nc1cccc3ccccc13)oc1ccccc12,7.37%
8,COc1ccccc1C(=O)NC(=O)Nc1c(C)cc(C)cc1C,13.8%
9,CCOCCCN(C(=O)c1snc(C(N)=O)c1N)C(C(=O)NC1CCCC1)c1ccc(F)cc1 (centres unmarked),12.1%
10,O=Nc1c(-c2c(O)[nH]c3cc(Br)ccc23)[nH]c2ccccc12,13%
11,CC(=O)Nc1ccc(NC(=O)COc2ccc(S(=O)(=O)N3CCCC3)cc2)cc1,10.6%
12,CNC(=O)CC1C(=O)N(C)C(=S)N1NC(=O)c1ccccc1 (centres unmarked),9.78%
13,O=C(CN1c2ccccc2Sc2ccccc21)NNC(=O)Nc1ccc(Cl)c(Cl)c1,13.9%
14,CC(C)[C@H](NC(=O)c1ccccc1)C(=O)OCC(=O)N1CCc2ccccc2C1,5.61%
15,Cn1cccc1/C=N/N1CCN(c2ccccc2)CC1,18.1%
16,CC(C)[C@H](NC(=O)[C@@H]1Cc2ccccc2CN1C(=O)OC(C)(C)C)C(=O)NCC1CCC(C(=O)O)CC1 (some centres unmarked),7.21%
17,c1ccc(-c2ccc3nnnn3n2)cc1,11.9%
18,COc1ccccc1/C=N/NC(=S)NCc1ccco1,12.4%
19,Cc1nc2cc(OCc3cc(C(=O)NC(C)c4cn(C)nc4C)no3)ccc2s1 (centres unmarked),8.52%
20,Cc1cc(C)nc(N/C(=N\S(=O)(=O)Cc2ccccc2)Nc2cccc(Cl)c2C)n1,3.68%
21,CC1(C)CC(NC(=O)C(=O)NCCc2ccccc2)CC(C)(C)N1,8.84%
22,COc1ccc(C2=CC(=O)OC(C)(c3ccccc3)O2)cc1 (centres unmarked),11.2%

row,SMILES,"hERG current change (%, negative = inhibition) at 1uM"
1,COc1cnc(-c2ccccn2)nc1Oc1ccc(Cl)c2ccccc12,-0.548%
2,O=C1CCCCCN1C(=O)c1ccc(C(=O)N2CCCCCC2=O)cc1,5.89%
3,CC(C)(C)c1ccc(OC(=O)CN2C(=O)C3C4CCC(C4)C3C2=O)cc1 (centres unmarked),5.86%
4,CCCCNC(=S)N(C)N=C1CCC(c2ccccc2)CC1 (centres unmarked),8.4%
5,Cc1ccc(S(=O)(=O)N2C(=O)/C(=C3\SC(=S)NC3=O)c3ccccc32)cc1,8.72%
6,CCC(=O)NC(=S)Nc1ccc(S(=O)(=O)NC2CCCCC2)cc1,4.71%
7,CC[C@@H](C)[C@H](NC(=O)CNC(=O)Cc1c(C)c2c(cc(C)c3c(C)coc32)oc1=O)C(=O)O,5.48%
8,Nc1ccc(N=Nc2ccccc2Cl)c(N)n1,13%
9,Cc1ccc(-c2csc3nnc(SCC(=O)NCc4ccco4)n23)cc1,7.58%
10,CCOc1ccccc1CNC(=O)Cn1nc(C)c2c(C)n(-c3ccc(C)cc3)nc2c1=O,17.1%
11,COC(=O)CN(C)C(=O)c1ccc(OC2CCN(S(=O)(=O)N(C)C)CC2)cc1,11.1%
12,c1ccc(SCc2cn(C[C@H]3CC[C@@H]([C@@H]4CC[C@H](Cn5cc(CSc6ccccc6)nn5)O4)O3)nn2)cc1,7.38%
13,CCCn1c(=O)c(F)cn(Cc2ccc(OC)c([N+](=O)[O-])c2)c1=O,1.19%
14,CC(C)CCN(CCC(C)C)C(CO)(CO)CO,14.1%
15,CCn1c(=O)c(C(=O)NNC(=O)c2ccccc2)c(O)c2ccccc21,9.21%
16,Cl.O=C(COc1ccccc1Cc1ccccc1)NCCCN1CCOCC1,-1.12%
17,COC(=O)c1ccc(CNC(=O)C23CC4CC(CC(C4)C2)C3)cc1,3.43%
18,CCOC(=O)CNC(=O)CSc1nnc(-c2cccc(C)c2)n1-c1ccc(OC)cc1,-17.7%
19,Cc1ccc2cccc(OCC(=O)N3CC(C)CC(C)C3)c2n1 (centres unmarked),14.1%
20,Cc1scc(-c2n[nH]c(=S)n2Cc2ccccc2)c1C,7.51%
21,CN(C)CC/C=C1\c2cc(Cl)ccc2Sc2cc(F)c(F)cc21.Cl,12.7%
22,Cc1ccc(-c2n[nH]c(=S)n2/N=C/c2ccc(C)o2)cc1,12.3%

row,SMILES,"hERG current change (%, negative = inhibition) at 1uM"
1,CC1(C)CC(=O)C(C=Nc2ccccc2)=C(O)C1,-5.2%
2,O=C(Cc1nn[nH]n1)c1ccccc1O,17.2%
3,CCOC(=O)/C(=N/Nc1ccc(OC)cc1)N1CCCc2ccccc21,8.74%
4,COc1cc(OC)nc(NC(=O)CCl)n1,-5.03%
5,COc1ccc(-n2c(Cc3cccn3C)nnc2SCC(=O)Nc2nccs2)cc1,-4.49%
6,O=C(C1=C(O)C(=O)N(CCN2CCOCC2)C1c1ccc(Cl)cc1)c1cc2ccccc2o1 (centres unmarked),13%
7,O=C(/C=C(\O)c1ccccc1)C(=O)NNC(=O)c1ccccc1,14.9%
8,O=[N+]([O-])c1ccc2ncnc(Nc3ccc4c(c3)OCCO4)c2c1,11.8%
9,CN(C(=O)COC(=O)c1ccc(S(=O)(=O)N2CCOCC2)cc1)C1CCCCC1,1.61%
10,CCCCCCCC[n+]1cccc2c3ccccc3ccc21.[I-],-92%
11,O=C(CF)NC(NC(=S)Nc1ccccc1O)C(Cl)(Cl)Cl (centres unmarked),16.9%
12,CC(C)OC(=O)/C(=C/c1ccc2c(c1)c1ccccc1n2C)NC(=O)c1ccccc1,1.89%
13,CCC(C)NC(=O)c1cc(CC(C)C)on1 (centres unmarked),14.6%
14,CCc1ccccc1NC(=S)NNC(=O)c1ccccc1Cl,18%
15,CC(C)OCCCn1c(=N)c(S(=O)(=O)c2ccccc2)cc2c(=O)n3ccccc3nc21,-0.118%
16,CC1CCCC(C)N1/N=C/c1cccc([N+](=O)[O-])c1 (centres unmarked),15.2%
17,CN1CCN(c2ccc(S(=O)(=O)N3CCCCC3)cc2NC(=O)/C=C/c2ccc(OC(F)F)cc2)CC1,22.7%
18,CC(=O)Nc1cc(NC(C)=O)cc(C(=O)OCC(=O)c2ccc3c(c2)NC(=O)CO3)c1,2.38%
19,CCOC(=O)C1(Cc2ccccc2)CCN(Cc2cnn(-c3ccccc3)c2)CC1,-33%
20,N=c1c(C(=O)NCCN2CCOCC2)cc2c(=O)n3ccccc3nc2n1CCCN1CCOCC1,13.2%
